Patent US20250011379A1 (VERTEX PHARMACEUTICALS, published 2025)

T1: human C4b (human, UniProt P0C0L5 20-1744)
T1 chain 1: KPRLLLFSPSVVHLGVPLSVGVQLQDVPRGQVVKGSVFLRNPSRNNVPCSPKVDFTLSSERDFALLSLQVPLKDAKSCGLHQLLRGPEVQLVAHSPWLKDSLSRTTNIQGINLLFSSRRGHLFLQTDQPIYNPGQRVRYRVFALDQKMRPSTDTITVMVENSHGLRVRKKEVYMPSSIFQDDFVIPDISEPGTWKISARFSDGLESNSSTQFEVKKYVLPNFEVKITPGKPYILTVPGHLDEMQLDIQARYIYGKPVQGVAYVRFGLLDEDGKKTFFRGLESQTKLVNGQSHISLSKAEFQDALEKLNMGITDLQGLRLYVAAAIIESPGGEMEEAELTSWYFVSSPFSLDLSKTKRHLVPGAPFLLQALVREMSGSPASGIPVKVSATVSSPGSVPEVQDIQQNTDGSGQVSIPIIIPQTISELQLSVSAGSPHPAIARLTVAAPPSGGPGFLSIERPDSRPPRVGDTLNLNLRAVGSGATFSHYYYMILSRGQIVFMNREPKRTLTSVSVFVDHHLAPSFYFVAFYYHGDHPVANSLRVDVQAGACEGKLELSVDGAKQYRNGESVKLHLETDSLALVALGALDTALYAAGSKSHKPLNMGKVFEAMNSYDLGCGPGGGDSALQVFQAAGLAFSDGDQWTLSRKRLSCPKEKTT
T1 chain 2: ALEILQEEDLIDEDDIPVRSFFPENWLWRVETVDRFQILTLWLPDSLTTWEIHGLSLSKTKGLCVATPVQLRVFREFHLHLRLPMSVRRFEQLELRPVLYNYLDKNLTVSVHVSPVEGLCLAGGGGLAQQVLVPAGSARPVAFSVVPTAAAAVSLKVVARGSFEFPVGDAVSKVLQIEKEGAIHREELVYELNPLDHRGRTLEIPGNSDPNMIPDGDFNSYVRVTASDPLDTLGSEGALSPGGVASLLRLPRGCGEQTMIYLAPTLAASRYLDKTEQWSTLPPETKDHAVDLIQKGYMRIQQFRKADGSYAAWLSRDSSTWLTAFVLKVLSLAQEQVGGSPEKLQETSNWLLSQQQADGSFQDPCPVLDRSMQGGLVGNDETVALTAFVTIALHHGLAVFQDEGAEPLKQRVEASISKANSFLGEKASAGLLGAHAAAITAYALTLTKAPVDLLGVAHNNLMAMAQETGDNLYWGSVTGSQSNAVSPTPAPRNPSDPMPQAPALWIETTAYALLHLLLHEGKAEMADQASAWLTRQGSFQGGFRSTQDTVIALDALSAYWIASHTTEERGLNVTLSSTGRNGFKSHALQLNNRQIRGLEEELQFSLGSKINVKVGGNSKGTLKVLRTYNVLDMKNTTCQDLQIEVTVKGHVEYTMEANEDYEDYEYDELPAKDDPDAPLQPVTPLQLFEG
T1 chain 3: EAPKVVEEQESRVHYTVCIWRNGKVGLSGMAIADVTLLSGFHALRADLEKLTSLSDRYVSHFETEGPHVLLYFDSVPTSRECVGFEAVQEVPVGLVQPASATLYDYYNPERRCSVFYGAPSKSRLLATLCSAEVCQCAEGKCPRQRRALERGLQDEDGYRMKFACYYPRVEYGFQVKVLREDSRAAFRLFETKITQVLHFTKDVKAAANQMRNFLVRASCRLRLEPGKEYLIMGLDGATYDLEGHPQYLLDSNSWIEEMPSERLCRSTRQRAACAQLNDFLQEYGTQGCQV

B1: Const. No. 34: HSA-GGSSGG-hCFI; H554K (enzyme)
chain: [not shown - about 600 residues]GGSSGGKVTYTSQEDLVEKKCLAKKYTHLSCDKVFCQPWQRCIEGTCVCKLPYQCPKNGTAVCATNRRSFPTYCQQKSLECLHPGTKFLNNGTCTAEGKFSVSLKHGNTDSEGIVEVKLVDQDKTMFICKSSWSMREANVACLDLGFQQGADTQRRFKLSDLSINSTECLHVHCRGLETSLAECTFTKRRTMGYQDFADVVCYTQKADSPMDDFFQCVNGKYISQMKACDGINDCGDQSDELCCKACQGKGFHCKSGVCIPSQYQCNGEVDCITGEDEVGCAGFASVTQEETEILTADMDAERRRIKSLLPKLSCGVKNRMHIRRKRIVGGKRAQLGDLPWQVAIKDASGITCGGIYIGGCWILTAAHCLRASKTHRYQIWTTVVDWIHPDLKRIVIEYVDRIIFHENYNAGTYQNDIALIEMKKDGNKKDCELPRSIPACVPWSPYLFQPNDTCIVSGWGREKDNERVFSLQWGEVKLISNCSKFYGNRFYEKEMECAGTYDGSIDACKGDSGGPLVCMDANNVTYVWGVVSWGENCGKPEFPGVYTKVANYFDWISYKVGRPFISQYNV
B2: Const. No. 35: HSA-GGSSGG-hCFI; R371E (enzyme)
chain: [not shown - about 600 residues]GGSSGGKVTYTSQEDLVEKKCLAKKYTHLSCDKVFCQPWQRCIEGTCVCKLPYQCPKNGTAVCATNRRSFPTYCQQKSLECLHPGTKFLNNGTCTAEGKFSVSLKHGNTDSEGIVEVKLVDQDKTMFICKSSWSMREANVACLDLGFQQGADTQRRFKLSDLSINSTECLHVHCRGLETSLAECTFTKRRTMGYQDFADVVCYTQKADSPMDDFFQCVNGKYISQMKACDGINDCGDQSDELCCKACQGKGFHCKSGVCIPSQYQCNGEVDCITGEDEVGCAGFASVTQEETEILTADMDAERRRIKSLLPKLSCGVKNRMHIRRKRIVGGKRAQLGDLPWQVAIKDASGITCGGIYIGGCWILTAAHCLRASKTHEYQIWTTVVDWIHPDLKRIVIEYVDRIIFHENYNAGTYQNDIALIEMKKDGNKKDCELPRSIPACVPWSPYLFQPNDTCIVSGWGREKDNERVFSLQWGEVKLISNCSKFYGNRFYEKEMECAGTYDGSIDACKGDSGGPLVCMDANNVTYVWGVVSWGENCGKPEFPGVYTKVANYFDWISYHVGRPFISQYNV
B3: Const. No. 36: HSA-GGSSGG-hCFI; A342R (enzyme)
chain: [not shown - about 600 residues]GGSSGGKVTYTSQEDLVEKKCLAKKYTHLSCDKVFCQPWQRCIEGTCVCKLPYQCPKNGTAVCATNRRSFPTYCQQKSLECLHPGTKFLNNGTCTAEGKFSVSLKHGNTDSEGIVEVKLVDQDKTMFICKSSWSMREANVACLDLGFQQGADTQRRFKLSDLSINSTECLHVHCRGLETSLAECTFTKRRTMGYQDFADVVCYTQKADSPMDDFFQCVNGKYISQMKACDGINDCGDQSDELCCKACQGKGFHCKSGVCIPSQYQCNGEVDCITGEDEVGCAGFASVTQEETEILTADMDAERRRIKSLLPKLSCGVKNRMHIRRKRIVGGKRAQLGDLPWQVAIKDRSGITCGGIYIGGCWILTAAHCLRASKTHRYQIWTTVVDWIHPDLKRIVIEYVDRIIFHENYNAGTYQNDIALIEMKKDGNKKDCELPRSIPACVPWSPYLFQPNDTCIVSGWGREKDNERVFSLQWGEVKLISNCSKFYGNRFYEKEMECAGTYDGSIDACKGDSGGPLVCMDANNVTYVWGVVSWGENCGKPEFPGVYTKVANYFDWISYHVGRPFISQYNV
B4: Const. No. 38: HSA-GGSSGG-hCFI; N52A (enzyme)
chain: [not shown - about 600 residues]GGSSGGKVTYTSQEDLVEKKCLAKKYTHLSCDKVFCQPWQRCIEGTCVCKLPYQCPKAGTAVCATNRRSFPTYCQQKSLECLHPGTKFLNNGTCTAEGKFSVSLKHGNTDSEGIVEVKLVDQDKTMFICKSSWSMREANVACLDLGFQQGADTQRRFKLSDLSINSTECLHVHCRGLETSLAECTFTKRRTMGYQDFADVVCYTQKADSPMDDFFQCVNGKYISQMKACDGINDCGDQSDELCCKACQGKGFHCKSGVCIPSQYQCNGEVDCITGEDEVGCAGFASVTQEETEILTADMDAERRRIKSLLPKLSCGVKNRMHIRRKRIVGGKRAQLGDLPWQVAIKDASGITCGGIYIGGCWILTAAHCLRASKTHRYQIWTTVVDWIHPDLKRIVIEYVDRIIFHENYNAGTYQNDIALIEMKKDGNKKDCELPRSIPACVPWSPYLFQPNDTCIVSGWGREKDNERVFSLQWGEVKLISNCSKFYGNRFYEKEMECAGTYDGSIDACKGDSGGPLVCMDANNVTYVWGVVSWGENCGKPEFPGVYTKVANYFDWISYHVGRPFISQYNV
B5: Const. No. 39: HSA-GGSSGG-hCFI; A55P (enzyme)
chain: [not shown - about 600 residues]GGSSGGKVTYTSQEDLVEKKCLAKKYTHLSCDKVFCQPWQRCIEGTCVCKLPYQCPKNGTPVCATNRRSFPTYCQQKSLECLHPGTKFLNNGTCTAEGKFSVSLKHGNTDSEGIVEVKLVDQDKTMFICKSSWSMREANVACLDLGFQQGADTQRRFKLSDLSINSTECLHVHCRGLETSLAECTFTKRRTMGYQDFADVVCYTQKADSPMDDFFQCVNGKYISQMKACDGINDCGDQSDELCCKACQGKGFHCKSGVCIPSQYQCNGEVDCITGEDEVGCAGFASVTQEETEILTADMDAERRRIKSLLPKLSCGVKNRMHIRRKRIVGGKRAQLGDLPWQVAIKDASGITCGGIYIGGCWILTAAHCLRASKTHRYQIWTTVVDWIHPDLKRIVIEYVDRIIFHENYNAGTYQNDIALIEMKKDGNKKDCELPRSIPACVPWSPYLFQPNDTCIVSGWGREKDNERVFSLQWGEVKLISNCSKFYGNRFYEKEMECAGTYDGSIDACKGDSGGPLVCMDANNVTYVWGVVSWGENCGKPEFPGVYTKVANYFDWISYHVGRPFISQYNV
B6: Const. No. 40: HSA-GGSSGG-hCFI; T59E (enzyme)
chain: [not shown - about 600 residues]GGSSGGKVTYTSQEDLVEKKCLAKKYTHLSCDKVFCQPWQRCIEGTCVCKLPYQCPKNGTAVCAENRRSFPTYCQQKSLECLHPGTKFLNNGTCTAEGKFSVSLKHGNTDSEGIVEVKLVDQDKTMFICKSSWSMREANVACLDLGFQQGADTQRRFKLSDLSINSTECLHVHCRGLETSLAECTFTKRRTMGYQDFADVVCYTQKADSPMDDFFQCVNGKYISQMKACDGINDCGDQSDELCCKACQGKGFHCKSGVCIPSQYQCNGEVDCITGEDEVGCAGFASVTQEETEILTADMDAERRRIKSLLPKLSCGVKNRMHIRRKRIVGGKRAQLGDLPWQVAIKDASGITCGGIYIGGCWILTAAHCLRASKTHRYQIWTTVVDWIHPDLKRIVIEYVDRIIFHENYNAGTYQNDIALIEMKKDGNKKDCELPRSIPACVPWSPYLFQPNDTCIVSGWGREKDNERVFSLQWGEVKLISNCSKFYGNRFYEKEMECAGTYDGSIDACKGDSGGPLVCMDANNVTYVWGVVSWGENCGKPEFPGVYTKVANYFDWISYHVGRPFISQYNV
B7: Const. No. 41: HSA-GGSSGG-hCFI; L73F (enzyme)
chain: [not shown - about 600 residues]GGSSGGKVTYTSQEDLVEKKCLAKKYTHLSCDKVFCQPWQRCIEGTCVCKLPYQCPKNGTAVCATNRRSFPTYCQQKSFECLHPGTKFLNNGTCTAEGKFSVSLKHGNTDSEGIVEVKLVDQDKTMFICKSSWSMREANVACLDLGFQQGADTQRRFKLSDLSINSTECLHVHCRGLETSLAECTFTKRRTMGYQDFADVVCYTQKADSPMDDFFQCVNGKYISQMKACDGINDCGDQSDELCCKACQGKGFHCKSGVCIPSQYQCNGEVDCITGEDEVGCAGFASVTQEETEILTADMDAERRRIKSLLPKLSCGVKNRMHIRRKRIVGGKRAQLGDLPWQVAIKDASGITCGGIYIGGCWILTAAHCLRASKTHRYQIWTTVVDWIHPDLKRIVIEYVDRIIFHENYNAGTYQNDIALIEMKKDGNKKDCELPRSIPACVPWSPYLFQPNDTCIVSGWGREKDNERVFSLQWGEVKLISNCSKFYGNRFYEKEMECAGTYDGSIDACKGDSGGPLVCMDANNVTYVWGVVSWGENCGKPEFPGVYTKVANYFDWISYHVGRPFISQYNV
B8: Const. No. 42: HSA-GGSSGG-hCFI; L73D (enzyme)
chain: [not shown - about 600 residues]GGSSGGKVTYTSQEDLVEKKCLAKKYTHLSCDKVFCQPWQRCIEGTCVCKLPYQCPKNGTAVCATNRRSFPTYCQQKSDECLHPGTKFLNNGTCTAEGKFSVSLKHGNTDSEGIVEVKLVDQDKTMFICKSSWSMREANVACLDLGFQQGADTQRRFKLSDLSINSTECLHVHCRGLETSLAECTFTKRRTMGYQDFADVVCYTQKADSPMDDFFQCVNGKYISQMKACDGINDCGDQSDELCCKACQGKGFHCKSGVCIPSQYQCNGEVDCITGEDEVGCAGFASVTQEETEILTADMDAERRRIKSLLPKLSCGVKNRMHIRRKRIVGGKRAQLGDLPWQVAIKDASGITCGGIYIGGCWILTAAHCLRASKTHRYQIWTTVVDWIHPDLKRIVIEYVDRIIFHENYNAGTYQNDIALIEMKKDGNKKDCELPRSIPACVPWSPYLFQPNDTCIVSGWGREKDNERVFSLQWGEVKLISNCSKFYGNRFYEKEMECAGTYDGSIDACKGDSGGPLVCMDANNVTYVWGVVSWGENCGKPEFPGVYTKVANYFDWISYHVGRPFISQYNV

Molecular target: T1, human C4b
Assay: cell-based or functional assay

Q: B1 was tested. Which “C4c EC50” value did it give?
A: The value was 93.2 nM.

Q: How did the “C4c EC50” value turn out when B2 was run?
A: The value was 745 nM.

Q: For B3, which “C4c EC50” value is on record?
A: The value was 205 nM.

Q: How did the “C4c EC50” value turn out when B4 was run?
A: Its value is 219 nM.

Q: B5 was tested. Which “C4c EC50” value did it give?
A: The value was 203 nM.

Q: Which “C4c EC50” value does the source give for B6 here?
A: Its value is 215 nM.

Q: For B7, which “C4c EC50” value is on record?
A: The value was 224 nM.

Q: How did the “C4c EC50” value turn out when B8 was run?
A: Its value is 379 nM.
